# Measurements from the supplement of paper PMC11417369.
# The list shows a part of the results.
# Test system: PfAP2-HC AP2 domain (GST-tagged)
# Test: gcPBM binding intensity (ln(normalized median fluorescence intensity)); higher = stronger DNA binding
# Summary of the method: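 An Agilent 4 × 180k array carrying primer-extended double-stranded 36-bp intergenic genomic probes and negative controls received GST-tagged P. falciparum DNA-binding domains expressed in E. coli, about 25 μg on average, for 1 h. The binding buffer contained 1× PBS, 1% milk, 0.2 mg/ml BSA, 0.5% salmon testes DNA and 0.03% Triton X-100. Binding intensity is the top Masliner-normalised natural-log median intensity across replicate spots of either probe orientation, read after Alexa488 anti-GST antibody staining and a 488 nm scan.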
row,Sequence,gcPBM binding intensity (ln)
1,TCCAATTAAATATATGAACACACATGTGAACTTTCT [CACACA_site9318],9.69
2,TTTTTAATTAACTTTGTAAACTTATATATATATATA [TGCATGCA_negctrl_site311],9.6
3,AAGGAATATTAAGTGGGTACTAAAAAAAAATTAATT [XGTACX_site331],9.57
4,TTAAAGCACCCATGCACACACACAAGGGAAAAGAAA [CACACA_site4289],10.9
5,GAAGTAGATGGAAAAGTGCACTGTAATGGTTATATT,9.76
6,TGTATATAGAAACATACACACATATTAATTTTACAT [CACACA_site3126],9.86
7,TTTTTTATTAAAAGCGAAAAAAATGAAAACTTTTTT [GTGCAC_negctrl_site605],9.22
8,TATATATATATATATATATATATTAATATATATTAC [XGTACX_negctrl_site103],9.62
9,AAATTAATAAATATTTTTATAAATTATAATATTAAT [GTGCAC_negctrl_site533],9.19
10,TATATATATATATAATGTACGAATAGAAAAAAAAAA [XGTACX_site7231],9.73
11,CAAAATTTATATAATAGTACACATGATCTTTTTTCT [XGTACX_site8956],9.55
12,GATACAAAATGGGGAACACACACATATATATATATA [CACACA_site9278],10.8
13,AAAAGTGTATGTAGGTGTACTTTTTATTTCTTCTTT [XGTACX_site8819],9.76
14,TAAAGGCAAACAAACACACACACATATATACCTATA [CACACA_site7078],10.6
15,ATAACAAAATAAAACACACACACAAATGTACCTATA [CACACA_site7190],10.8
16,TATTTATAAATATAAACACACAACATTATATGCATA [CACACA_site5748],9.75
17,TACATATTTGTATATGCACACATAAATTTTTCCATT [CACACA_site9148],9.82
18,AAATATTTATACCACACACACATACCTCTATTTGTA [CACACA_site6957],10.7
19,AATGGATTAGCTAGCACACACAAAAAAAAAAAAAAA [CACACA_site3031],9.69
20,TTTTTTTTTTTTTAATGTACCCATGGGCACATAGGT [XGTACX_site486],9.26
21,TAAATATAGGGTAATAGTACATAATTATATTCTTTT [XGTACX_site3883],9.64
22,TATATTTATATATTAGTGCACTTTTTGTTAATTTTT,9.78

row,Sequence,gcPBM binding intensity (ln)
1,ACAGTATAAAAATAAGCACACACACTAATATATATT [CACACA_site8212],10.7
2,TAAAATATATTTTTCTGTACACAAAAATATATTAAA [XGTACX_site2813],9.31
3,TATATATTAATATATGCATGTTAATATATTATGAAA [TGCATGCA_site61],9.53
4,TAAGTTTGTGCAAGTGGTACATATATATAAATTTAT [XGTACX_site5944],9.64
5,TGATTATAGACACGCGCACACACAACAAAAAAAAAA [CACACA_site9179],10.1
6,TTTACATAAACTGGTAGTACATAATATGGCTTAAAA [XGTACX_site5002],9.51
7,TTAGCAACTATTACTACACACATTTGTATTTAATTT [CACACA_site4961],9.91
8,TAATAATAATTAAAATGAGATAAATAAATATATATA [TGCATGCA_negctrl_site322],9.44
9,TCTTTATATCATCTTTCTAAATATATATATATATAA [CACACA_negctrl_site77],9.57
10,TTATATATTTATAAATGTACGTATAAGAATTTAATT [XGTACX_site8541],9.37
11,CTATTAATGTACTCTACACACATATAAGAGGACATT [CACACA_site471],9.61
12,AATGTAAAACGAAATGCACACTATGGAAAATATAAA [CACACA_site4559],10.1
13,AAAAATAAAAATGAGTGTACTTTAAGCCCTACACTT [XGTACX_site828],9.59
14,TATAATATTATAGTTTGTACGAAAATAATATATTTA [XGTACX_site8673],9.31
15,TTTTACTATGATATTTATATATCTATATATGTATAT [XGTACX_negctrl_site499],9.74
16,AACCAAAATTTTTGTCGTACAAAAGAGCAAATGTAG [XGTACX_site6472],9.72
17,GAATTATATACTTATTGTACAAAAAAAAAAAAAAAA [XGTACX_site3193],9.14
18,TATTCCCCCCAACACACACACACACCGACATACCAC [CACACA_site8723],11.5
19,ATAAACATGTATATATTAAAAAAAAAAAAAAAAAAT [CACACA_negctrl_site92],9.68
20,TTATTTATATATTGCCCACACACATGTGATTATTTA [CACACA_site1715],10.4
21,AATATTTTTTGTTTTACACACATATATAAATATATA [CACACA_site3602],9.79
22,TATAATATATATGTATGTACGTATGTATGATTTTGT [XGTACX_site1164],9.7

row,Sequence,gcPBM binding intensity (ln)
1,AAGAAAAATTCTTCACGTACAAATAATTATATATAT [XGTACX_site7217],9.53
2,GCAAGGTCCACACTGGTGCATTAAAAATAAAATATA [GTGCAC_site9956],9.3
3,TTTTTTAAATATATATGTACATATATCTATATATAT [XGTACX_site3461],9.98
4,TTTATAATTTATAGGCGGACAGGAAAATTTTATAAA [XGTACX_site6955],9.21
5,AAATTACAAATAAAATGTACTCATGTTTTTATTATA [XGTACX_site7223],9.48
6,TTTTTAATTTTTTTCACACATATATAAATACAAATA [CACACA_site5530],9.48
7,TGAACAGGTCATAATTTACACACTATATATTTTATT [CACACA_site8123],10
8,TACAGGAATATTTTTACACACTAAAAGTTATAAACT [CACACA_site6876],9.64
9,TTTTTCTTTTTTTGTTGTACATTTTGTAATATTTAC [XGTACX_site4102],9.78
10,TTTCTTATATTATATAAATATATAGATGTTAATGGT [CACACA_negctrl_site706],9.5
11,AATATAATATAATGCACACATAAAAAAAAAAAAAAA [CACACA_site304],9.67
12,TATTACAAAAATGTGTTATTATATAAACGTATAGAG [XGTACX_negctrl_site529],9.71
13,ATTTTTTTTTTTTTTTTTAATTTATGTTGTTATTTT [CACACA_negctrl_site944],9.76
14,GTAAAATAAATAATATAAATAAAATGAAATGAAACA [TGCATGCA_negctrl_site519],9.89
15,AAGTTTAAAGGAATTACACAAACAAGCAAATATATA [CACACA_negctrl_site857],9.74
16,ATTATATAATAATAAAGTACTAATATTTTTAAAAGA [XGTACX_site235],9.53
17,TAATATATTAAAAGAAGTACATTTCTGATTTAATAG [XGTACX_site6403],9.45
18,ATATATATATATATAGTGCAAATAAAAAATAGACAA [GTGCAC_site9796],9.92
19,GAACCGTTTTTATGTAGTACATATGTATATATATAT [XGTACX_site1577],9.89
20,TTAATATTAAAATATAAACACACAAAATTCAATTAT [CACACA_site9262],9.72
21,AGTAAATATATTATATGTACGTATCATAAAATATAT [XGTACX_site1567],9.61
22,TATTTGTATATTCATTCCTGTATTCCCTTTTTTGTA [CACACA_negctrl_site1236],9.8

row,Sequence,gcPBM binding intensity (ln)
1,ATATATATATATGTATGTACATAATATTTTTTTTAT [XGTACX_site5551],9.97
2,TGTACGTTTTTTAACACACACACAAAAAAAAAAAAA [CACACA_site6006],9.84
3,ATACCATATAATTATGTGAGAAAATATAATATTCAT [CACACA_negctrl_site310],9.67
4,ATTTTCTTAAATAAATGTACATGGCATTAAAAGTAA [XGTACX_site5119],9.59
5,AAATAAAATCATGAATGTACACAAAAATTATTGCAA [XGTACX_site5691],9.67
6,TTTGAAGGAAGGGGGGGAGGGGCCATAACAAAGGAA [GTGCAC_negctrl_site408],9.62
7,TTAAATATCCATATTTCACACATTTCGATATATATA [CACACA_site4208],9.6
8,ACTGTACTATAAAATACACACATATAAATATAAATA [CACACA_site3009],9.99
9,TATTTTAGAGAAAAAAATAAATTACAAAATGTTAGG [CACACA_negctrl_site1645],9.41
10,ATAATGTCATAATTATATCCTTTGGCATAAAATAAA [XGTACX_negctrl_site574],9.49
11,CCTAAATAAATGGACACACACATATTTATATTTATA [CACACA_site6789],10.4
12,GAATGTAAATATTAAAGTACACAGAATATATCTTCA [XGTACX_site8149],9.64
13,TATAATATTATATAATGTACGCATTTATTATTTAAA [XGTACX_site8326],9.48
14,TGAACCCACAAATCACGTACATATATATACACGTGT [XGTACX_site7739],9.74
15,TTTAACAACTATTTCTGTACACATTTTTATATAATT [XGTACX_site4917],9.88
16,ATATACATTTTAAATTTTAATGTAACCCATGGGAGA [CACACA_negctrl_site588],9.58
17,ATTTATATTATGAGGAGTACAATACTTATAGATGTA [XGTACX_site7510],9.59
18,ATAAATAACTTTTAAATACACACGTAAAATATATTG [CACACA_site3302],9.67
19,AAAAAAGATATATAAACACACATATTTATATACACA [CACACA_site6866],10.1
20,GATAGACACGTGCACACATGCAATACTTTATTCAGT [TGCATGCA_site778],10.3
21,TATATACGTAATAGTAGTACTTTAAAATGCGGAAAT [XGTACX_site4597],9.92
22,TGTACGAGTCGTAGAGTGCAGTCTGGAGAAACGTAC [GTGCAC_site9682],9.76
